# According to the supplement of paper PMC8728848:
# The other results are listed elsewhere or left out.
# B1: Gz-CVNH (Gibberella zeae) (protein)
# chain: MGSSHHHHHHSSGLVPRGSHMGNFHESSNNIWLEDGHILHAECGNGEGDYVESTLDLDYYIGNDDGSFSWGGENFSGSASNITLDIEGDDNIPVLRAELNPMDGDPVEANVNLSERIGNDCGTLIFLA
# Tests used:
# Test in all cases: glycan array binding signal (z-score within array); higher = stronger binding
# Conditions in all cases: glycan notation: IUPAC condensed, linker removed
# [1] = target: Fuc(a1-2)Gal(b1-4)[Fuc(a1-3)]GlcNAc
# Procedure, shortened: (§1)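 Arrays were curated from the Consortium for Functional Glycomics database, 3228 in total, and kept only where the protein sequence was available. Binding is expressed as a within-array Z-score. This score was averaged across arrays of the same protein sequence at different concentrations or buffers and across linkers, and negative values can be read as non-binding.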
# [2] = target: Fuc(a1-2)Gal(b1-4)[Fuc(a1-3)]GlcNAc(b1-2)Man(a1-3)[Fuc(a1-2)Gal(b1-4)[Fuc(a1-3)]GlcNAc(b1-2)Man(a1-6)]Man(b1-4)GlcNAc(b1-4)GlcNAc
# Procedure, shortened: as §1
# [3] = target: Fuc(a1-2)Gal(b1-4)[Fuc(a1-3)]GlcNAc(b1-2)[Fuc(a1-2)Gal(b1-4)[Fuc(a1-3)]GlcNAc(b1-4)]Man(a1-3)[Fuc(a1-2)Gal(b1-4)[Fuc(a1-3)]GlcNAc(b1-2)Man(a1-6)]Man(b1-4)GlcNAc(b1-4)GlcNAc
# Procedure, shortened: as §1
# [4] = target: Fuc(a1-2)Gal(b1-4)[Fuc(a1-3)]GlcNAc(b1-3)Gal(b1-4)[Fuc(a1-3)]GlcNAc
# Procedure, shortened: as §1
# [5] = target: Fuc(a1-2)Gal(b1-4)[Fuc(a1-3)]GlcNAc(b1-3)Gal(b1-4)[Fuc(a1-3)]GlcNAc(b1-3)Gal(b1-4)[Fuc(a1-3)]GlcNAc
# Procedure, shortened: as §1
# [6] = target: Fuc(a1-2)Gal(b1-4)[Fuc(a1-3)]GlcNAc(b1-3)GalNAc
# Procedure, shortened: as §1
# Fuc(a1-2)Gal6S(b1-4)Glc = target: Fuc(a1-2)Gal6S(b1-4)Glc
# Procedure, shortened: as §1
# [7] = target: Fuc(a1-2)Gal6S(b1-4)Glc6S
# Procedure, shortened: as §1
# [8] = target: Fuc(a1-2)Gal6S(b1-4)GlcNAc
# Procedure, shortened: as §1
# Fuc(a1-2)[Gal(a1-3)]Gal = target: Fuc(a1-2)[Gal(a1-3)]Gal
# Procedure, shortened: as §1
# [9] = target: Fuc(a1-2)[Gal(a1-3)]Gal(b1-3)GalNAc
# Procedure, shortened: as §1
# [10] = target: Fuc(a1-2)[Gal(a1-3)]Gal(b1-3)GlcNAc
# Procedure, shortened: as §1
# [11] = target: Fuc(a1-2)[Gal(a1-3)]Gal(b1-3)GlcNAc(b1-2)Man(a1-3)[Fuc(a1-2)[Gal(a1-3)]Gal(b1-3)GlcNAc(b1-2)Man(a1-6)]Man(b1-4)GlcNAc(b1-4)GlcNAc
# Procedure, shortened: as §1
# [12] = target: Fuc(a1-2)[Gal(a1-3)]Gal(b1-3)GlcNAc(b1-2)Man(a1-3)[Fuc(a1-2)[Gal(a1-3)]Gal(b1-3)GlcNAc(b1-2)Man(a1-6)]Man(b1-4)GlcNAc(b1-4)[Fuc(a1-6)]GlcNAc
# Procedure, shortened: as §1
# [13] = target: Fuc(a1-2)[Gal(a1-3)]Gal(b1-3)GlcNAc(b1-3)GalNAc
# Procedure, shortened: as §1
# [14] = target: Fuc(a1-2)[Gal(a1-3)]Gal(b1-4)Glc
# Procedure, shortened: as §1
# [15] = target: Fuc(a1-2)[Gal(a1-3)]Gal(b1-4)GlcNAc
# Procedure, shortened: as §1
# [16] = target: Fuc(a1-2)[Gal(a1-3)]Gal(b1-4)GlcNAc(b1-2)Man(a1-3)[Fuc(a1-2)[Gal(a1-3)]Gal(b1-4)GlcNAc(b1-2)Man(a1-6)]Man(b1-4)GlcNAc(b1-4)GlcNAc
# Procedure, shortened: as §1
# [17] = target: Fuc(a1-2)[Gal(a1-3)]Gal(b1-4)GlcNAc(b1-2)Man(a1-3)[Fuc(a1-2)[Gal(a1-3)]Gal(b1-4)GlcNAc(b1-2)Man(a1-6)]Man(b1-4)GlcNAc(b1-4)[Fuc(a1-6)]GlcNAc
# Procedure, shortened: as §1
# [18] = target: Fuc(a1-2)[Gal(a1-3)]Gal(b1-4)GlcNAc(b1-3)GalNAc
# Procedure, shortened: as §1
# [19] = target: Fuc(a1-2)[Gal(a1-3)]Gal(b1-4)[Fuc(a1-3)]Glc
# Procedure, shortened: as §1
# [20] = target: Fuc(a1-2)[Gal(a1-3)]Gal(b1-4)[Fuc(a1-3)]GlcNAc
# Procedure, shortened: as §1
# [21] = target: Fuc(a1-2)[Gal(a1-3)]Gal(b1-4)[Fuc(a1-3)]GlcNAc(b1-3)GalNAc
# Procedure, shortened: as §1
# [22] = target: Fuc(a1-2)[Gal(a1-4)]Gal(b1-4)GlcNAc
# Procedure, shortened: as §1
# [23] = target: Fuc(a1-2)[GalNAc(a1-3)]Gal
# Procedure, shortened: as §1
# [24] = target: Fuc(a1-2)[GalNAc(a1-3)]Gal(b1-3)GalNAc(a1-3)[Fuc(a1-2)]Gal(b1-4)GlcNAc
# Procedure, shortened: as §1
# [25] = target: Fuc(a1-2)[GalNAc(a1-3)]Gal(b1-3)GlcNAc
# Procedure, shortened: as §1
# [26] = target: Fuc(a1-2)[GalNAc(a1-3)]Gal(b1-3)GlcNAc(b1-2)Man(a1-3)[Fuc(a1-2)[GalNAc(a1-3)]Gal(b1-3)GlcNAc(b1-2)Man(a1-6)]Man(b1-4)GlcNAc(b1-4)GlcNAc
# Procedure, shortened: as §1
# [27] = target: Fuc(a1-2)[GalNAc(a1-3)]Gal(b1-3)GlcNAc(b1-2)Man(a1-3)[Fuc(a1-2)[GalNAc(a1-3)]Gal(b1-3)GlcNAc(b1-2)Man(a1-6)]Man(b1-4)GlcNAc(b1-4)[Fuc(a1-6)]GlcNAc
# Procedure, shortened: as §1
# [28] = target: Fuc(a1-2)[GalNAc(a1-3)]Gal(b1-3)GlcNAc(b1-3)GalNAc
# Procedure, shortened: as §1
binder,measurement,setting,value
B1,glycan array binding signal (z-score),[1],-0.125
same,glycan array binding signal (z-score),[2],0.021
same,glycan array binding signal (z-score),[3],0.125
same,glycan array binding signal (z-score),[4],-0.115
same,glycan array binding signal (z-score),[5],-0.072
same,glycan array binding signal (z-score),[6],0.181
same,glycan array binding signal (z-score),Fuc(a1-2)Gal6S(b1-4)Glc,-0.135
same,glycan array binding signal (z-score),[7],-0.132
same,glycan array binding signal (z-score),[8],-0.139
same,glycan array binding signal (z-score),Fuc(a1-2)[Gal(a1-3)]Gal,-0.147
same,glycan array binding signal (z-score),[9],-0.107
same,glycan array binding signal (z-score),[10],-0.131
same,glycan array binding signal (z-score),[11],-0.156
same,glycan array binding signal (z-score),[12],-0.107
same,glycan array binding signal (z-score),[13],0.001
same,glycan array binding signal (z-score),[14],-0.123
same,glycan array binding signal (z-score),[15],-0.094
same,glycan array binding signal (z-score),[16],-0.062
same,glycan array binding signal (z-score),[17],-0.132
same,glycan array binding signal (z-score),[18],-0.12
same,glycan array binding signal (z-score),[19],-0.109
same,glycan array binding signal (z-score),[20],-0.114
same,glycan array binding signal (z-score),[21],0.012
same,glycan array binding signal (z-score),[22],-0.147
same,glycan array binding signal (z-score),[23],-0.145
same,glycan array binding signal (z-score),[24],-0.144
same,glycan array binding signal (z-score),[25],-0.075
same,glycan array binding signal (z-score),[26],-0.121
same,glycan array binding signal (z-score),[27],-0.07
same,glycan array binding signal (z-score),[28],0.089
